Results published in PubChem BioAssay AID588855 (National Center for Advancing Translational Sciences (NCATS), 2011).
In all, about 410,000 compounds went through this assay and about 5,000 (1.2%) were called active. The shares of active, inactive and inconclusive entries below differ from those in the screen. The call rests on the fitted dose curve; in most records, active means well fitted inhibition curve with a large enough effect; inconclusive means small, poorly fitted or top-dose-only effect; inactive means no such curve, though single readings can be large or run the other way. Where the call is inconclusive, the potency comes from a doubtful curve fit.

Test: qHTS for Inhibitors of TGF-b; further: nearly all actives have a fitted effect of over 65% in size
Conditions: HepG2 CAGA-GFP TGF-b/SMAD3 reporter, GFP fluorescence, 18 h, TGF-beta stimulated, 500 pg/mL final; series mostly up to 46.1 µM; activity, negative = inhibition: at the top concentration
In short: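 Inhibition of TGF-beta-driven CAGA-GFP reporter expression in HEPG2 cells is measured by cellular GFP fluorescence after 18 h stimulation with 500 pg/mL recombinant TGF-beta in 1% FBS medium at 37 degrees C.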
On the % scale 0 is the no-effect control and ±100 the full control effect; potency means the concentration at half of the fitted maximal effect; tags describe the fitted curve by direction and shape.

Row | SMILES | Potency | activity, negative = inhibition
1 | Brc1ccc(CSc2nnc(Cc3c[nH]c4ccccc34)o2)cc1 | inconclusive: 25.1 µM [inhibitor, single point] | 
2 | CC1(C(=O)Nc2ccc(Cl)cc2)Cc2c(-c3cccc(C(F)(F)F)c3)ccnc2O1 (configuration not stated) | inconclusive: 22.4 µM [inhibitor, single point] | 
3 | O=C(NCc1ccco1)c1cnn2c(C(F)(F)F)cc(-c3ccccc3)nc12 | inconclusive: 2.24 µM [inhibitor, partial curve] | 
4 | COc1ccccc1-c1noc(-c2ccco2)n1 | inconclusive: 3.55 µM [inhibitor, single point] | 
5 | C=CCN(CC=C)CCOc1cccc(Oc2ccccc2)c1 |  | inactive: -24.6%
6 | COc1cc2c(-c3ccccc3)c(C)oc2cc1/C=N/NC(N)=S | inconclusive: 20 µM [inhibitor, partial curve, poor fit] | 
7 | Cc1cc(F)ccc1NCc1ccccc1-c1nnc(-c2ccccc2Cl)o1 | inconclusive: 10 µM [inhibitor, partial curve] | 
8 | O=C(NCC(c1cccnc1)N1CCc2ccccc21)c1cccc(C(F)(F)F)c1 (configuration not stated) | inconclusive: 15.8 µM [inhibitor, single point] | 
9 | C#CCNC(=O)C1=C[C@H](c2ccc3c(c2)OCO3)C[C@H](OCCCCO)O1 | inconclusive: 11.2 µM [inhibitor, partial curve, poor fit] | 
10 | O=C(NCc1ccccn1)c1ccc(-c2ccccc2)cc1 |  | inactive: 4.1%
11 | CC1(C)SC(=S)N(NC(=O)Nc2cccc3ccccc23)C1N(O)C(=O)Nc1ccccc1 (configuration not stated) | inconclusive: 25.1 µM [inhibitor, single point] | 
12 | C/C(=N\NC(=O)c1cccc(S(=O)(=O)Nc2cccc(Cl)c2)c1)c1cccs1 | inconclusive: 35.5 µM [inhibitor, single point] | 
13 | COc1ccc2[nH]c(C(=O)N/N=C/c3ccc(O)cc3O)cc2c1 |  | inactive: 1.63%
14 | COc1cc2[nH]c3c(OC)ncnc3c2cc1OC | inconclusive: 3.55 µM [inhibitor, single point] | 
15 | O=C(Cn1nc(-c2cccc(Cl)c2)ccc1=O)Nc1cccnc1 | inconclusive: 35.5 µM [inhibitor, single point] | 
16 | COCCCNC(=O)c1c(NC(=O)Cc2coc3cc(C)cc(C)c23)sc2c1CCCC2 | inconclusive: 20 µM [inhibitor, single point] | 
17 | Cc1ccc(C)c(NC(=S)N2CCC(NC(=O)C3CCCCC3)CC2)c1 | inconclusive: 6.31 µM [inhibitor, single point] | 
18 | CCOc1ccc(Br)cc1C1=NN(C(C)=O)C(c2ccc([N+](=O)[O-])s2)O1 (configuration not stated) | active: 12.6 µM | 
19 | c1ccc2c3c([nH]c2c1)-c1[nH]ncc1CC3 | inconclusive: 31.6 µM [inhibitor, single point] | 
20 | CCN(CCCNC(=O)c1cc2c(=O)n(CC)c3ccccc3c2s1)c1ccccc1 | inconclusive: 0.316 µM [inhibitor, full curve, poor fit] | 
21 | COc1ccc(OC)c([C@@H]2OCCC=C[C@H]2C)c1 | inconclusive: 0.631 µM [inhibitor, full curve, poor fit] | 

Row | SMILES | Potency | activity, negative = inhibition
22 | O=C(c1ccc(N2CCN(C(=O)c3ccc(F)c(F)c3)CC2)cc1)c1cccc(F)c1 | inconclusive: 14.1 µM [inhibitor, partial curve] | 
23 | CCC(Sc1ncnc2c1c(-c1ccccc1)cn2-c1ccc(OC)cc1)C(=O)OC (configuration not stated) | inconclusive: 28.2 µM [inhibitor, single point] | 
24 | OC(c1ccccc1)(c1ccccc1)C1CCN(C(=S)Nc2ccc(F)cc2)CC1 |  | inactive: -18.4%
25 | CC(C)c1ccc(NS(=O)(=O)c2ccc(Cl)nc2)cc1 |  | inactive: -21.4%
26 | Cc1cc(C)nc(NC(=O)C(c2ccccc2)c2ccccc2)c1 | inconclusive: 2.82 µM [inhibitor, partial curve, poor fit] | 
27 | COc1ccc(C)cc1NC(=O)COC(=O)CCC(=O)c1cccs1 |  | inactive: 7.01%
28 | Cc1ccccc1-c1noc(-c2ccc(O)cc2)n1 | inconclusive: 35.5 µM [inhibitor, single point] | 
29 | CCOP(=O)(c1ccccc1)c1nc(-c2ccccc2C)oc1N1CCCCC1 (configuration not stated) | inconclusive: 35.5 µM [inhibitor, single point] | 
30 | CCCC(C(=O)n1nc(C)cc1C)C(NS(=O)(=O)c1ccc(C)cc1)c1ccccc1 (configuration not stated) | inconclusive: 15.8 µM [inhibitor, single point] | 
31 | O=S(=O)(Nc1nc2c(s1)CCCC2)c1ccc2ccccc2c1 | inconclusive: 35.5 µM [inhibitor, single point] | 
32 | O=c1cc(-c2ccc(O)c(-c3c(O)cc(O)c4c(=O)cc(-c5ccc(O)cc5)oc34)c2)oc2cc(O)cc(O)c12 | inconclusive: 25.1 µM [inhibitor, single point] | 
33 | CCN(CC)c1ccc(/C=N/NC(=O)c2ccoc2C)c(O)c1 | inconclusive: 11.2 µM [inhibitor, partial curve] | 
34 | CC(C)Nc1ccc(-c2nc(-c3ccco3)no2)cc1[N+](=O)[O-] | inconclusive: 11.2 µM [inhibitor, single point] | 
35 | Cc1ccc(/C=N/NC(=O)c2cc(C3CC3)nc3ccccc23)o1 | inconclusive: 17.8 µM [inhibitor, single point] | 
36 | CCC(C)NC(=O)c1ccccc1NC(=O)CN1C(=O)c2cccc3cccc1c23 (configuration not stated) | inconclusive: 1.26 µM [inhibitor, partial curve, poor fit] | 
37 | CN1CCN(c2ccc3sc(-n4ccc5ccccc54)nc3c2)CC1 | inconclusive: 35.5 µM [inhibitor, single point] | 
38 | CCc1nc2ccc(C(=O)Nc3ccc(OC)c(OC)c3)cn2c1N(C)C(=O)Cc1ccccc1 |  | inactive: 3.37%
39 | N#CC1=C(S)N=C(N)C(c2nc(-c3ccccc3)cs2)C12CCCCC2 (configuration not stated) |  | inactive: -21.8%
40 | Cc1ccc(C)c(NC(=S)NNc2ccc(F)cc2F)c1 |  | inactive: -0.801%
41 | CCN(CC)c1ncnc2c1ncn2[C@H]1CN(Cc2ccc(-c3ccccc3)cc2)C[C@@H](CO)O1 | inconclusive: 22.4 µM [inhibitor, single point] | 
42 | CC1=CC(C)(C)N2C(=O)C(=O)c3cc(OC(=O)c4ccco4)cc1c32 | inconclusive: 25.1 µM [inhibitor, single point] | 
